# Experimental data reported in PubChem BioAssay (NCI).
# A structure can be active in one record and inactive in another.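 A percent growth of 40 corresponds to 60% growth inhibition; 0 means no net growth; -100 means all cells died. Active threshold: below 10.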 Not every entry of the source has a single result; some have several. Only these are listed. The source may hold further records. These are repeated runs of one drug, at the concentration stated with the values; one value stands for one run. Counts like (3×) say how often a value occurs here.
# Key:
# [1] = tested on: DU-145 prostate; assay: NCI-60 one-dose screen, 48 h (100 = growth as untreated, 0 = no growth, -100 = all killed)
# [2] = tested on: MDA-MB-231 breast; assay: as above; conditions: 0.25 µM
smiles,measurement,setting,value
COc1cccc2c1C(=O)c1c(O)c3c(c(O)c1C2=O)C[C@@](O)(C(=O)CO)C[C@@H]3OC1CC(N)C(O)C(C)O1 (stereo not given in full),growth,"[1]; 0.25 µM, runs of 2021","inactive: 25.7, 38.1, 27.4 (2×), 38, 32.4 (2×), 30.6, 26.4, 26.2 (2×), 25.5, 27.2 (2×), 21.3, 24.1 (2×), 25.1, 21.4, 15.7, 15.6, 21.6 (2×), 20.8, 31, 22.5, 26.1, 17.6 (2×), 18.1, 25, 27.7, 31.6, 31.2, 20.4, 37.4, 22.6, 24.4, 20, 22.8 (2×), 29.9, 26.8, 18.3 (2×), 29.3, 16.6%"
same,growth,"[1]; 0.25 µM, runs of 2022","inactive: 20.5, 25.6, 11, 11.2, 23.3, 15.6, 18.8, 20.8, 21.6, 19.3, 30.7, 39.8, 25.7, 21.9, 66.1, 78.7, 23.9, 74.4, 53.5, 86.1, 25, 22.6, 26.7, 28, 28.6% and active: 8.15%"
same,growth,"[1]; 25 µM, runs of 1993","active: 2.5, 8.54, 2.66, 1.57, 3.88, -11.7, 6.56, 5.73, 4.99, -17.2 (2×), -30.8, -7.18, 5.26, -0.867, 7.33, -35.5 (2×), 1.85, 2.8, -26.2, -18.1, 7.96, -9.71, -2.81, -31.9, -29, -27.5, 8.47, -13.2, 4.88, -20.1, -18.3, 1.27, -28.7 (2×), 5.42, -0.453, 1.8, 1.3, -13.6, -30.6, -8.66% and inactive: 11.7, 12, 10.9, 14%"
same,growth,"[1]; 25 µM, runs of 1994","inactive: 18.3, 99.4, 11.1, 15.7, 10.5 (2×), 103, 13.4, 21.6, 10.4, 15.5% and active: -3.37, -3.58, -26.5, 6.15, -5.04, 1.03, 6.43, -19.2, 8.65, 1.28, 8.73, -2.83, -18.9, -22.4, -7.04, -4.16, 9.28, -5.69, -1.17, -6.41, 6.13, -2.55, 8.72, 3.96%"
same,growth,"[1]; 25 µM, runs of 1995","active: 3.08, -8.48, -23.4, -1.75, -47.5, -7.26, -7.82, -6.3, 5.74, -3.69, 4, 6.9, -0.956, -59.6, 0.126, 3.02, -18.2, -19.4, -7.66, -12.2, 4.97, -9.92, -2.45, 3.52, -23.8, -13.2, 1.02, 9.25, 5.32, 0.313, -0.928, -34.6% and inactive: 13.4, 10.1, 13.2, 10.9, 15%"
same,growth,"[1]; 25 µM, runs of 1996","active: -15.7, 2.96, -16.8, -24.2, -25.6, 2.31, 1.77, 2.91, -12.1, -37.5, -7.48, 1.76 (2×), -2.91, -13.3, 2.85, 8.33, -19.4, -23.5, 0.275, -6.01, 3.71, 0.36, -9.05, -26.8, -2.78, 3.67, -27.7, -6.59, -14.3, -5.63, -23.8, -47.3, -17.9, 4.52, 5.5, 4.89, -15.4, -8.43, 3.1, -28.6, -42.3% and inactive: 11.5, 13.8, 15.1 (2×), 20.7, 36.9, 17.6, 18.3, 18, 12.3, 13.2%"
same,growth,"[1]; 25 µM, runs of 1997","active: -24.3, -2.61, -12.3, 7.21, -29.6, -12.4, -11.7, 2.14, 5.61, 6.34, -24.9, 6.85, -1.08, -16.9, -16.5, 4.99, -11.1, -10.6, -11, -33.2, -8.04, 0.0595, 1.39, 1.36, -3.29, 1.19, -18.1, 5.38, 4.94, -6.69, -14.4, -11.9, -8.93% and inactive: 14.3, 10.8, 20.5, 27.1, 12.6, 12, 15.7, 13.6, 22.1%"
same,growth,"[1]; 25 µM, runs of 1998","active: -23.4, 4.44, 2.25, 0.163, -0.388, -8.68, -6.93, 4.98, -35.9, -3.43, 7.59, 7.67, 7.01, 7.91, -20.6, -2.23, 1.97, -12.5, 4.41, 9.76, -45, -22.6% and inactive: 10.3%"
same,growth,"[1]; 25 µM, runs of 1999","active: -25.5, 6.37, -8.24, 2.63, -55.4, -27, -55.5, -40.3, -54.9, -42.9, 6.32, 1.72, -44.7, -100, -45.9, -63.7% and inactive: 11.2%"
same,growth,"[1]; 25 µM, runs of 2000","active: 0.253, -100, -48.1, -39.5%"
same,growth,[2]; runs of 2006,"inactive: 71.6%, 76.5%"
same,growth,[2]; runs of 2007,"inactive: 69.7, 79.3, 76.8, 73.7, 86.5, 78.9, 76.6, 92.8, 84.6, 78, 78.2, 61.8, 60.5, 27.4, 26.1, 52.5, 87.2, 92.9, 76.1, 105, 96.9, 95.8, 93.7 (2×), 94, 106, 98.1, 84.3, 83.4, 76.9, 27.8, 95.5, 87.5, 87.4, 74.8, 82.7, 74.7, 97.3, 87.6, 88.6, 103%"
same,growth,[2]; runs of 2008,"inactive: 80.5, 86.5, 73.9, 71.6, 86.4, 80.8, 73.5 (2×), 77.1, 87.9, 83.8, 91.9, 100 (2×), 96.2, 59.3, 67, 63.4, 69.9, 65.4, 67.3, 53, 60, 57.4, 58.2, 60.4, 97.9, 69.8, 94.1, 94.7, 72.5, 66, 48.6, 66.6, 47, 72, 74, 45.3, 61.7, 73.6, 87.7, 66.2, 81.2, 84.2, 68.4, 70.4, 79.5, 69.6, 89.1, 78.7, 64.2, 82.4%"
same,growth,[2]; runs of 2009,"inactive: 63.1, 68.7, 68.9 (2×), 59.7, 71.6, 73.4, 86, 92.4, 74.6 (3×), 79.4, 84.1, 80.1 (2×), 83.3, 80.2, 71.9, 79.9, 72.7, 79.6 (2×), 80.4, 85.2, 61.3, 71.7, 76.9, 74.2 (2×), 66.1, 67, 73.3, 78.8, 83.5, 99.2, 86.6, 70.5, 89.7, 78.5, 97, 85.7, 54.5, 59.4, 69.6, 76.7, 75 (2×), 80.7, 82.3, 67.8, 70.7, 65, 71.2, 76.1, 56.6, 91.1, 105, 76, 78.1, 97.6, 82.4, 73.6, 91.6, 92.6, 76.4, 87.2, 83.8, 78.3%"
same,growth,[2]; runs of 2010,"inactive: 77.7, 79.5, 87.2, 72.4 (2×), 63.3, 76.6 (2×), 74, 92.5, 98.6, 80.1 (2×), 87.8, 96.4, 86.7, 76.8, 88.3, 80.3, 74.6, 78.9, 71.3, 75.8, 78.4, 57.1, 76.5 (2×), 79.2 (2×), 60.9, 81.8, 83.5, 81.4, 94.7, 75.7, 79.7, 80.2, 89.2, 80, 94.5, 80.6, 86 (2×), 91, 90.2, 96.2, 90.1, 97, 104, 85.6, 85.3, 93.2%"
